PubChem BioAssay AID1159614 (National Center for Advancing Translational Sciences (NCATS), 2016)
About 65 (0.1%) of roughly 45,000 compounds were called active. Calls come from the whole dose curve; as a rule, active = well fitted activation curve with a large enough effect; inconclusive = small, poorly fitted or top-dose-only effect; inactive = no such curve, though single readings can be large or run the other way. Some of the results follow.

Target: Galactocerebrosidase (Homo sapiens) (UniProt P54803)
Assay: A Novel Cell-Based Assay to Identify Small Molecules for B -Galactocerebrosidase; note: 0% is about no effect; nearly all actives have a fitted effect of over 65% in size
Conditions: 145M-Twi-hGALC-G270D cells (Twitcher mouse brain line with human GALC G270D), HMU-beta-Gal fluorescence, 48 h; series mostly up to 57.5 µM; activation: at the top concentration
Method in brief: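 Live 145M-Twi cells (Twitcher mouse brain-derived, GALC-null) stably expressing human GALC-G270D, with a wild-type GALC line, were compound-treated. Residual GALC activity was then read as fluorescence from 0.1 mM final HMU-β-gal at pH 5.2; higher signal means activation.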

Chain of UniProt P54803 (P54803 whole entry, looked up): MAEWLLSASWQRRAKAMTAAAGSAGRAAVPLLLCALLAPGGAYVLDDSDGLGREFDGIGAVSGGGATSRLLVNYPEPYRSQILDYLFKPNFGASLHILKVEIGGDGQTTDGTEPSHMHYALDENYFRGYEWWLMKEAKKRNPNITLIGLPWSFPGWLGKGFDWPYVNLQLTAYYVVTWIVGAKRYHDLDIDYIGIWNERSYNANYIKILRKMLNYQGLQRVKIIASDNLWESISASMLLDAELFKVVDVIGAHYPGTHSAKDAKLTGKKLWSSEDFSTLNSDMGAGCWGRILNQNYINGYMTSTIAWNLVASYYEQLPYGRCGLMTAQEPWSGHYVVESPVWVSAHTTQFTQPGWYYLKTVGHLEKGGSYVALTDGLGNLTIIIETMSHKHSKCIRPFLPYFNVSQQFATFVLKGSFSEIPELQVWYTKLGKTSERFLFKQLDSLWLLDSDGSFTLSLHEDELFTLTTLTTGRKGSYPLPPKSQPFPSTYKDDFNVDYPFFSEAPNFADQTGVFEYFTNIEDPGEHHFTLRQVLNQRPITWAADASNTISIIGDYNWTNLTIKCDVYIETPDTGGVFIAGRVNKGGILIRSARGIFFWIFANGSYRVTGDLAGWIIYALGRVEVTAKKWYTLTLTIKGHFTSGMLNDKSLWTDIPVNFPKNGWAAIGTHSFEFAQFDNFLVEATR

activation, inactive:
O=C(OCc1ccccc1Cl)c1ccc(-c2nnn(Cc3ccccc3)n2)cc1 -4.9%
CC(C)Oc1ccc(CNC(=O)c2ccc(NC(=O)c3nsc4ccccc34)cc2)cc1 -10.3%
CC(C)(C)C(=O)Nc1ccc2nc(SCC(=O)N3CCCC3)sc2c1 -9.99%
O=C(Nc1ccc(NC(=O)c2cccs2)cc1)c1ccc(Br)cc1 -5.16%
Cc1ccc(C)c(NC(=O)C(=O)NCCc2csc(-c3ccc(C(F)(F)F)cc3)n2)c1 -8.92%
NCC1CCC(C(=O)Oc2ccc(CCC(=O)O)cc2)CC1 (stereo unspecified) -18%
CCN(CCCNC(=O)c1cc2cc3cc(C)ccc3nc2s1)c1cccc(C)c1 -3.29%
COc1ccc(/C=C(/C#N)c2nc(-c3ccc(-c4ccccc4)cc3)cs2)cc1 7.8%
CCOC(=O)Cn1c(=O)cc(-c2ccccc2)c2c(C)nn(C)c21 -15.8%
CCC(C)NC(=O)Cn1c(=O)n(-c2ccc(C)cc2)c(=O)c2ccccc21 (stereo unspecified) -2.68%
Cc1nc(-c2ccccc2)sc1-c1ccc(SCC(=O)Nc2ccc(F)cc2F)nn1 -8.17%
Cc1oc2ncnc(N3CCCCC3)c2c1C(=O)NCC1CCN(Cc2ccc(F)cc2)CC1 -13.2%
CCN(CC)CCOc1ccc(/C(=C(\Cl)c2ccccc2)c2ccccc2)cc1 -19.2%
CCc1ccccc1N(CC)C(=O)c1cc2c(s1)-c1ccccc1OC2 -10.3%
COc1ccc(OC)c(CCNC(=O)c2ccc(CS(=O)Cc3cccc(Cl)c3)o2)c1 (stereo unspecified) -9.51%
Cc1ccccc1CSc1nc2nc(C)c(Cc3ccccc3)c(C)n2n1 -12.7%
CCc1ccc(-n2nc(CO)c(C(=O)NCc3ccccn3)n2)cc1 -7.22%
CCCCNc1nc(Oc2ccc(=O)n(-c3ccccc3)n2)nc(N(C)C)n1 2.16%
COc1ccc(-n2ncc(C(=O)N3CCN(c4ccccn4)CC3)c2C2CCN(C(=O)OC(C)(C)C)CC2)cc1 -7.84%
CCC(CC)c1nn2c(=O)cc(COc3ccc(NC(=O)c4ccc(Cl)cc4)cc3)nc2s1 3.86%
COCCNc1nc(NCc2ccccc2OC)c2cnn(C)c2n1 -9.88%
CC(Sc1oc(-c2ccco2)nc1S(=O)(=O)c1ccc(Br)cc1)c1ccccc1 (stereo unspecified) -2.03%
COc1ccc(N2CCN(c3nc(-c4ccccc4F)nc4ccccc34)CC2)cc1 -14.3%
O=C(CN(c1cccc(Br)c1)S(=O)(=O)c1ccccc1)N1CCc2ccccc2C1 -28%
COc1ccc(N2CCN(CCCNC(=O)c3cnn(-c4ccc(F)cc4)c3-n3cccc3)CC2)cc1 -25%
CCOC(=O)c1cn(CC(=O)Nc2cccc(Cl)c2C)nn1 -18.7%
Nc1nc(-c2ccccc2)c(Br)c(=O)[nH]1 -12.6%
COCCNC(=O)c1c(NC(=O)Cc2coc3cc(C)ccc23)sc2c1CCCC2 13.5%
CCC(C)NC(=O)c1ccc2c(c1)N(Cc1cccc(Cl)c1)C(=O)c1ccccc1S2=O (stereo unspecified) -16.7%
CCOc1ccccc1NC(=O)C(NS(=O)(=O)c1cccc2nsnc12)c1ccccc1 (stereo unspecified) -8.26%
Cc1nnc(N2CCN(c3ccccc3F)CC2)c2c1nnn2Cc1ccc(F)cc1 -3.06%
CN(C(=O)c1nn(C)c2c1COc1ccccc1-2)c1cccc(C(F)(F)F)c1 -1.33%
CN(Cc1ccccc1)S(=O)(=O)c1ccc(F)c(C(=O)Nc2cccc(Cl)c2Cl)c1 -4.72%
Cc1ccc(C(C)(C)C)c(OCC(=O)NCCc2nc3ccccc3[nH]2)c1 -8.07%
Cc1ccccc1NS(=O)(=O)c1ccc(Br)s1 -2.84%
COc1ccc(-c2nc3sc(CCNC(=O)c4cc(Cl)ccc4OC)c(C)n3n2)cc1 -9.84%
CCOc1ccccc1-n1nnc(-c2nc(-c3ccccc3)no2)c1N -13.3%
Cc1cccc(CC2C(=O)Nc3ccccc32)c1 (stereo unspecified) -16.6%
CCOc1ccc(C2=NC(c3cccs3)=Nc3ccc(C(C)C)cc3N2)cc1 -11.5%
CCOC(=O)c1c(NC(=O)c2ccc(S(=O)(=O)N(CCOC)CCOC)cc2)sc2c1CC(C)(C)NC2(C)C -14.1%
Cc1c(/C=C(\C#N)C(=O)Nc2cccc(Cl)c2)c2ccccc2n1Cc1ccccc1Cl -12%
CCN(CC)c1cc2c(cc1F)c(=O)c(S(=O)(=O)c1cc(C)ccc1C)cn2Cc1ccccc1 -7.62%
CCOc1ccc(C2c3cc(OCC)c(OCC)cc3CC(=O)N2c2ccc(C(=O)O)cc2)cc1OCC (stereo unspecified) -5.41%
CCc1ccc(C(=O)COC(=O)C(Cc2c[nH]c3ccccc23)NC(=O)c2ccc(Br)cc2)cc1 (stereo unspecified) -10.6%
COc1ccccc1N1CCN(c2ncnc3c2cnn3C)CC1 -13.5%
COc1ccc(S(=O)(=O)N(CCc2ccccc2)CC(=O)Nc2cccc(OC)c2)cc1 -10.3%
CCOC(=O)c1cccc(NC(=O)C2CCN(S(=O)(=O)c3ccc4c(c3)oc(=O)n4C)CC2)c1 -16.5%
COc1ccc(CCN2C(=O)c3oc4ccc(F)cc4c(=O)c3C2c2ccc(C(C)(C)C)cc2)cc1 (stereo unspecified) -12.1%
Cc1nc2ccc(S(=O)(=O)N(C)CC(=O)Nc3ccc(Br)c(C)c3)cc2s1 -7.09%
CCOc1ccc(C2CC(=O)c3c([nH]c(C(=O)OCc4ccccc4)c3C)C2)cc1 (stereo unspecified) -19.8%
CCc1cccc(C)c1NC(=O)Cn1ccn(-c2ccc(F)cc2)c(=O)c1=O -12.4%
Cc1ccc(Cn2nnc(C(=O)Nc3ccc(F)c(F)c3)c2N)cc1 -16.3%
COc1ccc(S(=O)(=O)N2CCC(n3c(C(F)(F)F)nc4cccnc43)CC2)cc1OC -0.206%
Cc1ccccc1-c1nn2c(=O)cc(CN3CCN(C(=O)c4ccc(C(C)(C)C)cc4)CC3)nc2s1 1.37%
O=C(CSc1nc(-c2ccccc2)no1)N1CCCCC1 -6.87%
CCOC(=O)N1CCc2c(sc3c2c(=O)n(CCc2ccccc2)c(=O)n3Cc2ccc(F)cc2)C1 -13.8%
COc1ccc(C(=O)CN2C(=O)N(c3ccc(C(C)=O)cc3)S(=O)(=O)c3ccccc32)cc1 11.3%
COc1ccc(NC(=O)c2cn(-c3ccccc3)nc2-c2ccc(C)cc2)cc1 -4.79%
COC(=O)c1ccc(NC(=O)CN2CCN(c3ccc(Cl)cc3)CC2)cc1 -4.73%
O=C1CC(c2ccccc2)Cc2[nH]c(=O)c(C(=O)Nc3cccc(Cl)c3)cc21 (stereo unspecified) -11.4%
CCOc1ccccc1-n1cc2c(c1-c1ccc(OC)cc1)c(=O)n(C)c(=O)n2C -14%
Cc1ccc(N(C)C(=O)C2CCN(S(=O)(=O)c3ccc4c(c3)CCCN4C(=O)C3CCC3)CC2)cc1 13.6%
CCCOC(=O)CSc1nnc2ccc3ccccc3n12 -19.9%
O=C(CSc1nc2ccccc2nc1Cc1ccccc1)Nc1ccc2c(c1)OCO2 -6.63%
CCOC(=O)c1cccc(NC(=O)C(C)n2c(C)c3cnn(-c4ccccc4)c(=O)c3c2C)c1 (stereo unspecified) -18.5%
COc1ccc(NC(=O)c2ccc3c(c2)CCN3S(=O)(=O)c2ccc(C)cc2)cc1Cl -7.25%
Cc1c(Cl)cccc1NC(=O)CN1C(=O)COc2ccc(S(=O)(=O)Nc3ccccc3)cc21 -12%
CN1CCCC(n2nc(Cc3ccc(Cl)cc3)c3ccccc3c2=O)CC1 (stereo unspecified) -6.22%
FC(F)(F)C(F)(F)C(F)(F)C(F)(F)C(F)(F)C(F)(F)C(F)(F)C(F)(F)Br -15.9%
COc1ccc(Cl)cc1NC(=O)CCc1c(C)nc2c(c1C)c(=O)n(C)c(=O)n2C -14.8%
CCCSCCCNC(=O)c1ccc(Cn2c(=O)c3cccn3c3cccnc32)cc1 -7.82%
Cc1ccc(NC(=O)CN(C)S(=O)(=O)c2ccc3nc(C)sc3c2)c(C)c1 -12.8%
CC(C)NS(=O)(=O)c1ccc2nc(NC(=O)c3cncc(Br)c3)sc2c1 -6.37%
CC(C)NC(=O)c1ccc(-n2c(-c3ccccc3)cc3c2CCCCC3)cc1 4.61%
Nc1ncc(S(=O)(=O)NCc2ccc(Cl)cc2)cn1 10.1%
COc1ccc(Cl)cc1NC(=O)Cn1cc(C(=O)c2ccncc2)c(=O)c2cc(C)ccc21 -20.9%
Cn1nnc2c(N3CCN(c4ccccc4F)CC3)ncnc21 -7.31%
CCOc1ccc(-c2cc(OC(=O)c3ccccc3)c3c(C)oc(C)c3c(=O)c2)cc1 -3.44%
COc1cc2nc(SCc3cccc(Cl)c3)n3nc(CCn4nc(C)cc4C)nc3c2cc1OC -12.8%
Cc1ccccc1C(=O)Nc1cccc(C(=O)OCc2cc(=O)n3c4c(sc3n2)CCCC4)c1 -17.5%
Cc1ccc(NC(=O)N(Cc2cn(C)c3ccccc23)C2CCCCC2)cc1C -11.8%
O=C(CSc1nc2ccccc2n1Cc1ccccc1F)NCc1ccccc1 -15.7%
CCC(Sc1nc2cc(OC)c(OC)cc2c(=O)n1CCc1ccc(Cl)cc1)C(=O)NCCOC (stereo unspecified) -12.9%
COc1cc2c(cc1OC)C(COc1ccc(F)cc1)N(C(=O)Cc1ccc(F)cc1)CC2 (stereo unspecified) -20.7%
Cc1ccc(-n2c(SCC(=O)NCc3ccc(F)cc3)nc3c([nH]c4ccccc43)c2=O)cc1 -5.03%
CCCCNC(=O)CSc1nc2cc3c(cc2c(=O)n1CCCCCC(=O)NCc1ccc2c(c1)OCO2)OCO3 1.64%
COc1ccc(N(CC(=O)NCCc2ccccc2)S(=O)(=O)c2ccccc2)c(OC)c1 -17.1%
Cc1ccc2oc3c(c(=O)c2c1)C(c1ccccc1F)N(CCCN1CCOCC1)C3=O (stereo unspecified) 6.56%
Cc1ccc(CN(C(=O)COc2cccc([N+](=O)[O-])c2)c2ccccn2)cc1 -5.12%
CCOC(=O)C1CCN(c2ncnc3c2nnn3C)CC1 -17.5%
Cc1ccc(Nc2c(-c3ccncc3)nc3ccc(C)cn23)cc1 -8.48%
CCOc1ccc(OCC)c(S(=O)(=O)N2CCN(c3cccc(C)c3C)CC2)c1 11.1%
CC(C)c1ccc(CNc2nc(-c3ccco3)nn2S(=O)(=O)c2ccc3ccccc3c2)cc1 -14.4%
Cc1cc(C)cc(N2CCn3c2nc2c3c(=O)n(Cc3ccc(Cl)cc3)c(=O)n2C)c1 -3.66%
CCCS(=O)(=O)c1ncc(Cl)c(C(=O)Nc2scc(-c3ccccc3)c2C(=O)OCC)n1 -13%
COc1ccc(CNC(=O)Cn2nnc(-c3ccc(S(C)(=O)=O)cc3)n2)cc1 -18.3%
